# Assay results taken from the supplement of paper PMC11125491.
# ± gives the standard deviation of the averaged measurements. Growth of baker's yeast expressing single-residue variants of Pneumocystis jirovecii dihydrofolate reductase in 8.8 or 44 µM methotrexate (about 75% and 90% inhibition of the wild type). Selection coefficient per generation; 0 = like wild type, above 0 = less sensitive, below 0 = more sensitive or loss of function. No active / inactive call per row; the paper calls resistant above 0.220 (8.8 µM) or 0.243 (44 µM) together with a significance test. At 44 µM about 15% of codons end with one read or none, so the lowest values are floors (replicate rank correlation 0.74; 0.94 at 8.8 µM).
# B1: UniProt A0EPZ9; numbered along this chain (parent)
# chain: MDWQKSLTLIVALTLSRGIGLKNDLPWKLKSDMMFFSRVTSGLLVTRSTGQMNVVLMGRKTWESLPAHSRPLKNRINVVISRQEVLDLGGGAYHARSLDDALALLSQIYDSTSKIQLNRVFVIGGGELCKAAMEHSRLNRIIATVIHNEVDCDVFFPIDFRSSQSCLPWRKQDHSVLEAWVGSKVPQGKINENGFIYEFEMWIRDI
# Variants of: B1
# Assay: selection coefficient against synonymous wild-type codons (log2 per generation); higher = faster growth than wild type
# Conditions: with Saccharomyces cerevisiae carrying the variant on a plasmid
# Procedure: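 Pooled growth of yeast carrying single-residue variants of P. jirovecii dihydrofolate reductase (own DFR1 gene intact), two passages at 30 °C, three cultures, sequenced before and after. Codons with under 15 starting reads are left out; codons of one change are averaged.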
variant,measurement,setting,value
MDWQKSLTLIVALTLSRGIGLKNDLPWKLKSDMMFFSRVTSGLLVTRSTGQMNVVLMGRKTWESNPAHSRPLKNRINVVISRQEVLDLGGGAYHARSLDDALALLSQIYDSTSKIQLNRVFVIGGGELCKAAMEHSRLNRIIATVIHNEVDCDVFFPIDFRSSQSCLPWRKQDHSVLEAWVGSKVPQGKINENGFIYEFEMWIRDI [L65N],selection coefficient against synonymous wild-type codons (log2),methotrexate 8.8 µM,-0.0445 ± 0.078
same,selection coefficient against synonymous wild-type codons (log2),methotrexate 44 µM,-0.0499 ± 0.09
MDWQKSLTLIVALTLSRGIGLKNDLPWKLKSDMMFFSRVTSGLLVTRSTGQMNVVLMGRKTWESPPAHSRPLKNRINVVISRQEVLDLGGGAYHARSLDDALALLSQIYDSTSKIQLNRVFVIGGGELCKAAMEHSRLNRIIATVIHNEVDCDVFFPIDFRSSQSCLPWRKQDHSVLEAWVGSKVPQGKINENGFIYEFEMWIRDI [L65P],selection coefficient against synonymous wild-type codons (log2),methotrexate 8.8 µM,-0.352 ± 0.047
same,selection coefficient against synonymous wild-type codons (log2),methotrexate 44 µM,-0.168 ± 0.058
MDWQKSLTLIVALTLSRGIGLKNDLPWKLKSDMMFFSRVTSGLLVTRSTGQMNVVLMGRKTWESQPAHSRPLKNRINVVISRQEVLDLGGGAYHARSLDDALALLSQIYDSTSKIQLNRVFVIGGGELCKAAMEHSRLNRIIATVIHNEVDCDVFFPIDFRSSQSCLPWRKQDHSVLEAWVGSKVPQGKINENGFIYEFEMWIRDI [L65Q],selection coefficient against synonymous wild-type codons (log2),methotrexate 8.8 µM,0.0557 ± 0.058
same,selection coefficient against synonymous wild-type codons (log2),methotrexate 44 µM,0.059 ± 0.13
MDWQKSLTLIVALTLSRGIGLKNDLPWKLKSDMMFFSRVTSGLLVTRSTGQMNVVLMGRKTWESRPAHSRPLKNRINVVISRQEVLDLGGGAYHARSLDDALALLSQIYDSTSKIQLNRVFVIGGGELCKAAMEHSRLNRIIATVIHNEVDCDVFFPIDFRSSQSCLPWRKQDHSVLEAWVGSKVPQGKINENGFIYEFEMWIRDI [L65R],selection coefficient against synonymous wild-type codons (log2),methotrexate 8.8 µM,-0.281 ± 0.091
same,selection coefficient against synonymous wild-type codons (log2),methotrexate 44 µM,-0.189 ± 0.12
MDWQKSLTLIVALTLSRGIGLKNDLPWKLKSDMMFFSRVTSGLLVTRSTGQMNVVLMGRKTWESSPAHSRPLKNRINVVISRQEVLDLGGGAYHARSLDDALALLSQIYDSTSKIQLNRVFVIGGGELCKAAMEHSRLNRIIATVIHNEVDCDVFFPIDFRSSQSCLPWRKQDHSVLEAWVGSKVPQGKINENGFIYEFEMWIRDI [L65S],selection coefficient against synonymous wild-type codons (log2),methotrexate 8.8 µM,-0.342 ± 0.14
same,selection coefficient against synonymous wild-type codons (log2),methotrexate 44 µM,-0.165 ± 0.1
MDWQKSLTLIVALTLSRGIGLKNDLPWKLKSDMMFFSRVTSGLLVTRSTGQMNVVLMGRKTWESTPAHSRPLKNRINVVISRQEVLDLGGGAYHARSLDDALALLSQIYDSTSKIQLNRVFVIGGGELCKAAMEHSRLNRIIATVIHNEVDCDVFFPIDFRSSQSCLPWRKQDHSVLEAWVGSKVPQGKINENGFIYEFEMWIRDI [L65T],selection coefficient against synonymous wild-type codons (log2),methotrexate 8.8 µM,-0.295 ± 0.13
same,selection coefficient against synonymous wild-type codons (log2),methotrexate 44 µM,-0.214 ± 0.047
MDWQKSLTLIVALTLSRGIGLKNDLPWKLKSDMMFFSRVTSGLLVTRSTGQMNVVLMGRKTWESVPAHSRPLKNRINVVISRQEVLDLGGGAYHARSLDDALALLSQIYDSTSKIQLNRVFVIGGGELCKAAMEHSRLNRIIATVIHNEVDCDVFFPIDFRSSQSCLPWRKQDHSVLEAWVGSKVPQGKINENGFIYEFEMWIRDI [L65V],selection coefficient against synonymous wild-type codons (log2),methotrexate 8.8 µM,-0.477 ± 0.098
same,selection coefficient against synonymous wild-type codons (log2),methotrexate 44 µM,-0.314 ± 0.13
MDWQKSLTLIVALTLSRGIGLKNDLPWKLKSDMMFFSRVTSGLLVTRSTGQMNVVLMGRKTWESWPAHSRPLKNRINVVISRQEVLDLGGGAYHARSLDDALALLSQIYDSTSKIQLNRVFVIGGGELCKAAMEHSRLNRIIATVIHNEVDCDVFFPIDFRSSQSCLPWRKQDHSVLEAWVGSKVPQGKINENGFIYEFEMWIRDI [L65W],selection coefficient against synonymous wild-type codons (log2),methotrexate 8.8 µM,-0.166 ± 0.031
same,selection coefficient against synonymous wild-type codons (log2),methotrexate 44 µM,-0.0921 ± 0.16
MDWQKSLTLIVALTLSRGIGLKNDLPWKLKSDMMFFSRVTSGLLVTRSTGQMNVVLMGRKTWESYPAHSRPLKNRINVVISRQEVLDLGGGAYHARSLDDALALLSQIYDSTSKIQLNRVFVIGGGELCKAAMEHSRLNRIIATVIHNEVDCDVFFPIDFRSSQSCLPWRKQDHSVLEAWVGSKVPQGKINENGFIYEFEMWIRDI [L65Y],selection coefficient against synonymous wild-type codons (log2),methotrexate 8.8 µM,0.0817 ± 0.026
same,selection coefficient against synonymous wild-type codons (log2),methotrexate 44 µM,0.188 ± 0.061
MDWQKSLTLIVALTLSRGIGLKNDLPWKLKSDMMFFSRVTSGLLVTRSTGQMNVVLMGRKTWESLAAHSRPLKNRINVVISRQEVLDLGGGAYHARSLDDALALLSQIYDSTSKIQLNRVFVIGGGELCKAAMEHSRLNRIIATVIHNEVDCDVFFPIDFRSSQSCLPWRKQDHSVLEAWVGSKVPQGKINENGFIYEFEMWIRDI [P66A],selection coefficient against synonymous wild-type codons (log2),methotrexate 8.8 µM,-0.0604 ± 0.054
same,selection coefficient against synonymous wild-type codons (log2),methotrexate 44 µM,-0.0455 ± 0.11
MDWQKSLTLIVALTLSRGIGLKNDLPWKLKSDMMFFSRVTSGLLVTRSTGQMNVVLMGRKTWESLCAHSRPLKNRINVVISRQEVLDLGGGAYHARSLDDALALLSQIYDSTSKIQLNRVFVIGGGELCKAAMEHSRLNRIIATVIHNEVDCDVFFPIDFRSSQSCLPWRKQDHSVLEAWVGSKVPQGKINENGFIYEFEMWIRDI [P66C],selection coefficient against synonymous wild-type codons (log2),methotrexate 8.8 µM,-0.0933 ± 0.07
same,selection coefficient against synonymous wild-type codons (log2),methotrexate 44 µM,-0.0346 ± 0.11
MDWQKSLTLIVALTLSRGIGLKNDLPWKLKSDMMFFSRVTSGLLVTRSTGQMNVVLMGRKTWESLDAHSRPLKNRINVVISRQEVLDLGGGAYHARSLDDALALLSQIYDSTSKIQLNRVFVIGGGELCKAAMEHSRLNRIIATVIHNEVDCDVFFPIDFRSSQSCLPWRKQDHSVLEAWVGSKVPQGKINENGFIYEFEMWIRDI [P66D],selection coefficient against synonymous wild-type codons (log2),methotrexate 8.8 µM,0.0942 ± 0.027
same,selection coefficient against synonymous wild-type codons (log2),methotrexate 44 µM,0.0457 ± 0.098
MDWQKSLTLIVALTLSRGIGLKNDLPWKLKSDMMFFSRVTSGLLVTRSTGQMNVVLMGRKTWESLEAHSRPLKNRINVVISRQEVLDLGGGAYHARSLDDALALLSQIYDSTSKIQLNRVFVIGGGELCKAAMEHSRLNRIIATVIHNEVDCDVFFPIDFRSSQSCLPWRKQDHSVLEAWVGSKVPQGKINENGFIYEFEMWIRDI [P66E],selection coefficient against synonymous wild-type codons (log2),methotrexate 8.8 µM,-0.0799 ± 0.02
same,selection coefficient against synonymous wild-type codons (log2),methotrexate 44 µM,-0.203 ± 0.13
MDWQKSLTLIVALTLSRGIGLKNDLPWKLKSDMMFFSRVTSGLLVTRSTGQMNVVLMGRKTWESLFAHSRPLKNRINVVISRQEVLDLGGGAYHARSLDDALALLSQIYDSTSKIQLNRVFVIGGGELCKAAMEHSRLNRIIATVIHNEVDCDVFFPIDFRSSQSCLPWRKQDHSVLEAWVGSKVPQGKINENGFIYEFEMWIRDI [P66F],selection coefficient against synonymous wild-type codons (log2),methotrexate 8.8 µM,-0.234 ± 0.25
same,selection coefficient against synonymous wild-type codons (log2),methotrexate 44 µM,-0.0407 ± 0.18
MDWQKSLTLIVALTLSRGIGLKNDLPWKLKSDMMFFSRVTSGLLVTRSTGQMNVVLMGRKTWESLGAHSRPLKNRINVVISRQEVLDLGGGAYHARSLDDALALLSQIYDSTSKIQLNRVFVIGGGELCKAAMEHSRLNRIIATVIHNEVDCDVFFPIDFRSSQSCLPWRKQDHSVLEAWVGSKVPQGKINENGFIYEFEMWIRDI [P66G],selection coefficient against synonymous wild-type codons (log2),methotrexate 8.8 µM,-0.0404 ± 0.053
same,selection coefficient against synonymous wild-type codons (log2),methotrexate 44 µM,-0.122 ± 0.079
